# From article PMC4336329 (PLoS ONE, 2015)
# The campaign covered roughly 310,000 compounds. About 2,200 (0.71%) showed an effect of 50% or more. The effect is printed as a negative number. This is one part of the list.
# Target: human ether-à-go-go-related gene (hERG) potassium channel (human, UniProt Q12809)
# Assay: primary screen, population patch clamp on CHO cells stably expressing hERG
# human ether-à-go-go-related gene (hERG) potassium channel, sequence (Q12809 whole entry, looked up): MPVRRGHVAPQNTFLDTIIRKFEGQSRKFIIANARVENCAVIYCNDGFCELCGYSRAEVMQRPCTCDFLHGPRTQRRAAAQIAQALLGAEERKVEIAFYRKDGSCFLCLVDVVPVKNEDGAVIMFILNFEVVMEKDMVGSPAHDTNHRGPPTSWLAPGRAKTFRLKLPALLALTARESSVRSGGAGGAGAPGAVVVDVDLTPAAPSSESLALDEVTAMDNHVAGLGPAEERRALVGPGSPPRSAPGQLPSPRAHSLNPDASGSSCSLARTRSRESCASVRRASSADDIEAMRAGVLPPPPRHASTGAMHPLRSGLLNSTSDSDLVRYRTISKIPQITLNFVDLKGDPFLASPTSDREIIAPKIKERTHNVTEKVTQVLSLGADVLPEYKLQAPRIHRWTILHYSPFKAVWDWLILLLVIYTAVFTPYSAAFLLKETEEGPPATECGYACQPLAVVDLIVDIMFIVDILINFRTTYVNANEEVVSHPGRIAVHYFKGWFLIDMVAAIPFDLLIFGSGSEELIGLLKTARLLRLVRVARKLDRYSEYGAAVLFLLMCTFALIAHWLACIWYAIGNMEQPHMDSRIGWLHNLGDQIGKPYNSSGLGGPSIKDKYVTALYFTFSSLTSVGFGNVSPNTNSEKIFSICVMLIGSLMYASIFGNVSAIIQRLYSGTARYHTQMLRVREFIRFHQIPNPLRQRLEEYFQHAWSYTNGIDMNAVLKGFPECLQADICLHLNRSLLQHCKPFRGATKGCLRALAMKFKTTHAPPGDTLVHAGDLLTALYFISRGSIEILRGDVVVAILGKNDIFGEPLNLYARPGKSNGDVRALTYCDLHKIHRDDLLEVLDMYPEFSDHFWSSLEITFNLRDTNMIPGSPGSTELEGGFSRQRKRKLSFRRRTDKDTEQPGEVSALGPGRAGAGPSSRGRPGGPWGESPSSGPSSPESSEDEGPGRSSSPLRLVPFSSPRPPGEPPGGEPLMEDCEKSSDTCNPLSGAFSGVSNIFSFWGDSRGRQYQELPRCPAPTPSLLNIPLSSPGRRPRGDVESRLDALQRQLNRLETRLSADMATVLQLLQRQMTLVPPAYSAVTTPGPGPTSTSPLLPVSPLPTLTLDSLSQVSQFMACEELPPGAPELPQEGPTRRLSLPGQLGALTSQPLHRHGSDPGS
row,Structure (SMILES),"hERG current change (%, negative = inhibition) at 1uM"
1,O=C(CCS(=O)(=O)c1ccc(Cl)cc1)Oc1ccc2c(c1)OCO2,8.56%
2,CC(C)(CNS(=O)(=O)c1ccc(F)cc1)CNS(=O)(=O)c1ccc(F)cc1,11.1%
3,COc1ccc(Cl)cc1C(=O)NNC(=O)c1cccc([N+](=O)[O-])c1,6.56%
4,NC(=O)C1CCN(CC(=O)Nc2ccccc2Sc2ccc(Cl)cc2)CC1,-16.1%
5,CCCC(=O)NCc1nc2ccccc2n1C,0.473%
6,COc1ccc(/C=N/c2sc3c(c2C#N)CCN(Cc2ccccc2)C3)c(O)c1,14.7%
7,COc1ccc(OCc2nc(C#N)c(NCCCn3ccnc3)o2)cc1,-4.24%
8,COc1ccc(N(C(=O)CNC(=O)c2ccco2)C(C(=O)NCC2CCCO2)c2ccccc2)cc1 (stereo not shown),16.3%
9,COC(=O)c1oc2c(c1C)C1(CCC2)SCCS1,-2.61%
10,CCc1ccc2[nH]c(=O)c(CN(Cc3ccccc3OC)C(=O)Nc3ccccc3OC)cc2c1,2.84%
11,COc1ccccc1N(CC(O)Cn1ccnc1C)S(=O)(=O)c1ccccc1 (stereo not shown),3.01%
12,Cc1sc2ncnc(SCC#N)c2c1C,9.51%
13,N/C(=N\OC(=O)c1cccc(Cl)c1)c1ccncc1,1.42%
14,Cc1ccc(-n2nc(C)c3c2OC(N)=C(C#N)C3c2ccc(C)o2)cc1 (stereo not shown),13.7%
15,CCN(CC)CCCC(C)NC(=O)c1cc(=O)c2ccccc2o1.Cl (stereo not shown),-0.658%
16,O=C(O)CSc1c2c(nc3cc(C(=O)N4CCOCC4)ccc13)CCCC2,6.67%
17,O=C(Nc1ccc(Cl)cc1)N1CC=CCC1,14.6%
18,O=[N+]([O-])C(/C=C(\Cl)[N+](=O)[O-])=C1N(Cc2ccc(Cl)nc2)CCN1Cc1ccc(Cl)nc1,-4.06%
19,CN1CCN(C(=O)COc2ccc(C(C)(C)C)cc2Br)CC1,3.27%
20,COc1cc(/C=C2\C(=N)N3N=CSC3=NC2=O)ccc1OS(=O)(=O)c1ccccc1[N+](=O)[O-],11.2%
21,N#Cc1ccc(C(=O)NC2CCCCCCC2)cc1,1.73%
22,Cc1nc2cc(NC(=O)c3cccc(S(C)(=O)=O)c3)ccc2o1,13.5%

row,Structure (SMILES),"hERG current change (%, negative = inhibition) at 1uM"
1,COc1nc(C)cc(C)c1S(=O)(=O)c1ccccc1,18.1%
2,C=CC1CN(CC(=O)OC)S(=O)(=O)c2ccccc21 (stereo not shown),5.84%
3,CCOc1cc(/C=C2/C(=O)ON=C2C)ccc1O,20.7%
4,CC(Sc1nc(N)cc(N)n1)C(=O)Nc1ccc(N2CCOCC2)cc1 (stereo not shown),14.7%
5,CCN(CC)c1ccc(N=C2C(=O)Nc3ccccc32)cc1,-3.82%
6,Oc1c(Cl)cc(Cl)cc1/C=N/c1ncn[nH]1,10.8%
7,COc1ccc(-c2ccc(SCC(=O)NCc3ccc4c(c3)OCO4)nn2)cc1OC,7.22%
8,C=CCOC(=O)C1=C(C)OC(N)=C(C#N)C1c1ccoc1 (stereo not shown),8.84%
9,Cn1ccnc1SCC(=O)Nc1cccc2ccccc12,5.1%
10,Cc1cccc2cc(CN(Cc3nnnn3Cc3ccco3)C3CCCC3)c3nnnn3c12,13.1%
11,CCOc1cc(CNCc2cccs2)cc(Br)c1OCC.Cl,3.63%
12,CCC(C)NC(=O)C1CCN(S(=O)(=O)c2ccc(OC)cc2)CC1 (stereo not shown),13.1%
13,COc1ccc(Cl)cc1S(=O)(=O)N1CCCC(C(=O)N2CCOCC2)C1 (stereo not shown),-0.264%
14,COc1cc(NC(=O)C2CCCO2)c(OC)cc1NC(=O)c1ccccc1 (stereo not shown),12.3%
15,CCOc1cc(C)c(C(C)C)cc1S(=O)(=O)NCc1ccccn1,6.17%
16,CC(=O)c1ccc(NC(=O)c2ccc(C)c(Br)c2)cc1,4.32%
17,Cc1c(-c2ccccc2)cnc2c(C)cccc12,19%
18,CCOc1cc(CNCc2ccccn2)ccc1OCC(=O)NC(C)(C)C.Cl,8.36%
19,CC(C)(C)c1ccc(NC(=O)COC(=O)c2ccc3ncsc3c2)cc1,6.72%
20,CC(C)c1c(C(=O)N/N=C/c2ccc(-c3ccccc3)cc2)nnn1-c1nonc1N,23.7%
21,C/C=C/c1ccc(OCCCCOc2ccc(OC)cc2)c(OC)c1,3.2%
22,COc1cccc(CNC(=O)c2ccccc2NC(=O)C2=C(C)OCCS2)c1,9.99%

row,Structure (SMILES),"hERG current change (%, negative = inhibition) at 1uM"
1,COc1ccc(C(=O)OCC(=O)NC23CC4CC(CC(C4)C2)C3)c(OC)c1OC,-15.3%
2,CC(=O)c1ccc(N2CCN(C(=S)Nc3ccccc3)CC2)cc1,2.46%
3,O=C(NC12CC3CC(CC(C3)C1)C2)N1CCN(c2ncccn2)CC1,9.02%
4,CCOC(=O)c1[nH]c(C)c(C(=O)N2CCc3ccccc32)c1C,6.01%
5,COc1ccc(N2Cc3ccc(C(=O)N/N=C\c4ccc(O)cc4O)cc3C2)cc1,19.1%
6,CCOC(=O)c1sc(NC(=O)CSc2ncn[nH]2)c(C#N)c1C,-5.79%
7,CCSc1ccccc1C(=O)Nc1nc2ccccc2c(=O)[nH]1,17.6%
8,N#Cc1ccc(NC(=O)c2cc(-c3cccs3)on2)cc1,24.2%
9,Cc1oc2ccc(NS(=O)(=O)c3ccc(C(C)(C)C)cc3)cc2c1C(=O)Nc1ccccc1,-1.99%
10,CCC(=O)c1ccc(N2CCN(S(=O)(=O)c3ccccc3)CC2)c(F)c1,9.4%
11,COCc1c(C(=O)N2CCN(c3ccc(C(F)(F)F)cn3)CC2)oc2ccccc12,13.8%
12,Cc1nn(-c2ccc(Cl)cc2)c2sc(C(=O)N3CCN(c4ccccn4)CC3)cc12,9.33%
13,O=C(CCc1nnc(Cc2c[nH]c3ccccc23)o1)NC(C1CC1)C1CC1,16.4%
14,NC(=O)CS(=O)(=O)c1nc2ccccc2n1Cc1ccccn1,13.1%
15,C=CC[n+]1c(-c2ccc(OCC)cc2)csc1NNC(=O)Nc1ccccc1.[Br-],17.8%
16,CCC(C(=O)NCc1ccco1)N(C(=O)CNS(=O)(=O)c1ccccc1)c1ccc(OC)cc1 (stereo not shown),1.95%
17,CC(=O)Nc1ccc(-c2csc(NC(=O)C3=COCCO3)n2)cc1,3.41%
18,Fc1ccc(COc2ccccc2-c2ccnc3ncnn23)cc1,0.0386%
19,CC(=O)N1CCc2cc(S(=O)(=O)NCCCOC(C)C)ccc21,15.6%
20,CC(=O)c1cn(CC(=O)NCc2ccc3c(c2)OCO3)c2ccccc12,5.95%
21,CC1Sc2ccc(S(=O)(=O)CCC(=O)NC(C)c3ccccc3)cc2NC1=O (stereo not shown),14.7%
22,CCC(=O)Nc1nc2ccccc2n1Cc1ccc(C)cc1,3.76%

row,Structure (SMILES),"hERG current change (%, negative = inhibition) at 1uM"
1,Cl.O=C(NCCCN1CCOCC1)c1cccnc1,12.3%
2,COc1ccc(N2CCN(C(CNC(=O)COc3ccccc3)c3ccco3)CC2)cc1 (stereo not shown),-10.8%
3,COc1ccc(-c2noc(CNC(=O)CCN3C(=O)[C@H]4CC=CC[C@H]4C3=O)n2)cc1,11.5%
4,O=C(Cc1n[nH]c(=O)c2ccccc12)Nc1ccc(-c2nnc3n2CCCCC3)cc1,-5.12%
5,COc1ccc(S(N)(=O)=O)cc1C(=O)OCCCOC(=O)c1cc(S(N)(=O)=O)ccc1OC,17.1%
6,O=S(=O)(NCC1CCCO1)c1ccc(Cl)c(C(F)(F)F)c1 (stereo not shown),-0.915%
7,CCC(C(=O)OC)n1cnc2scc(-c3ccc(C)cc3)c2c1=O (stereo not shown),9.18%
8,Cc1ccc(OCC(=O)N2CCN(C(=O)CCC3CCCC3)CC2)cc1,-29.1%
9,O=C(c1ccco1)N1CCN(c2ccccc2F)CC1,5.1%
10,COc1cccc(CN2CCCC(N3CCc4ccccc4C3)C2)c1O (stereo not shown),9.35%
11,O=C(O)/C(=C\c1cccc(O)c1)c1ccc(S(=O)(=O)N2CCCC2)s1,-9.68%
12,CC(Sc1nc(N)cc(=O)[nH]1)C(=O)NNC(=O)c1cccc(Cl)c1 (stereo not shown),4.15%
13,O=C(COc1ccc2ccccc2c1)NNC(=O)Nc1ccccc1F,13.2%
14,CC(C)c1ccc(Nc2c([N+](=O)[O-])c(=O)n(C)c3ccccc23)cc1,9.15%
15,O=C(NC1CC1)C1CCN(C2CCN(Cc3ccccc3C(F)(F)F)CC2)CC1,-7.23%
16,O=c1cnc(-c2ccc(Cl)cc2)cn1O,24.2%
17,O=C(Nc1ccc2oc(-c3ccncc3)nc2c1)c1ccc([N+](=O)[O-])o1,3.38%
18,CCn1ncc(NC(=S)Nc2ccc3c(c2)OCO3)c1C(N)=O,27%
19,O=c1c2ccccc2oc2nc(-c3cccs3)n(CCc3ccccc3)c(=O)c12,2.24%
20,Cc1cc(C(=O)CSc2nc3ccccc3n2CCC#N)c(C)n1Cc1cccs1,-3.7%
21,CC1CCCC(NC(=O)COC(=O)Cc2ccsc2)C1C (stereo not shown),-7.66%
22,CCOc1ccc(C(=O)Nc2ccccc2C(=O)O)cc1,6.67%
